Data on 49 compounds can be found in article PMC6919601, “Identification of Plasmodium dipeptidyl aminopeptidase allosteric inhibitors by high throughput screening” (PLoS ONE, 2019).

About 230 (0.21%) of roughly 110,000 compounds showed an effect of 50% or more. Some of the results follow.
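Also: 30 min substrate incubation versus DMSO and 10 µM JCP410 controls.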

The target in the test is DPAP1 (Plasmodium falciparum, UniProt Q8IIJ9). As to the kind of experiment: primary screen, percent inhibition; read by cleavage of a fluorogenic dipeptide substrate; higher = more effect of the substance. Further details: species or system P. falciparum D10 trophozoite lysates; single well.
DPAP1, sequence (Q8IIJ9 whole entry, looked up): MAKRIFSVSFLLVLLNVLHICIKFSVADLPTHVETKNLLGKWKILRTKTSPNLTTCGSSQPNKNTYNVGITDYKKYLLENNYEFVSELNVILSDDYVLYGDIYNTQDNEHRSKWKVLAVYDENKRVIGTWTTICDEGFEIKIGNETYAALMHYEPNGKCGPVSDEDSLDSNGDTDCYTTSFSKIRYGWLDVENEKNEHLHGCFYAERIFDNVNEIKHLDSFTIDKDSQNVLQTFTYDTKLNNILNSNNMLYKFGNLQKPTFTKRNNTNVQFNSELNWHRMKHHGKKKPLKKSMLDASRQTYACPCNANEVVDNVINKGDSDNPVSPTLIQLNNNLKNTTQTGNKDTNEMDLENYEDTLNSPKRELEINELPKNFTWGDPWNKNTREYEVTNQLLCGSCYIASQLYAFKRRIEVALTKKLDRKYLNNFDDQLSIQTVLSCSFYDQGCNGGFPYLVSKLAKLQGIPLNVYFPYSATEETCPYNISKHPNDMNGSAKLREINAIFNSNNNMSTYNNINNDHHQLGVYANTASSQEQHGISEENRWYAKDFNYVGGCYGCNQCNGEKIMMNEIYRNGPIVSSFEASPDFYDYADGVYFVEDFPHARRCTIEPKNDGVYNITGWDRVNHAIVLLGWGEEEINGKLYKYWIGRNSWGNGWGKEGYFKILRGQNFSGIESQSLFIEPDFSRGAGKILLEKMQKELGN
As to `CCOC(=O)N1CCC(NC(=O)C2CCN(S(=O)(=O)c3c[nH]cn3)CC2)CC1`, the “% Inhibition @ 10 uM” value was 1.23%.
Next, `O=C(COc1ccccc1)Nc1nc2ccccc2s1`: 3.44%; `CCC(C)NC(=O)C1c2ccccc2C(=O)N(CCOC)C1c1cccs1` (stereo not shown): -0.326%; `COc1ccc2[nH]c3c(=O)n(CC(=O)NCCC4=CCCCC4)c(=S)[nH]c3c2c1`: 2.54%.
Regarding `CCn1nc(C)c(NC(=O)Cc2ccc(Cl)cc2)c1C`, the “% Inhibition @ 10 uM” value is -9.31%.
As for `CCOC(=O)C1CCCN(CCCCCCC=C(C)C)C1` (stereo not shown), the “% Inhibition @ 10 uM” value came out at 4.9%.
As for `COc1ccc(/C=C(\NC(=O)c2ccccc2)C(=O)OCC2CCCN3CCCCC23)cc1OC` (stereo not shown), the figure is -1.55%; as for `CCCC[C@H](NC(=O)OCC(C)C)C(=O)c1nnc(-c2ccco2)o1`, 1.7%.
As to `N#CCNC(=O)C(CC1=CCCC1)NC(=O)OCc1ccccc1` (stereo not shown), the “% Inhibition @ 10 uM” value is on record as -3.49%.
Regarding `O=C1c2ccccc2C(=O)N1Cc1ccccc1O`, the “% Inhibition @ 10 uM” value is given as -3.23%.
Next, `Cc1sc2nc(SCC(=O)c3ccc(O)c(O)c3)nc(O)c2c1C`: 8.95%; `CCn1c2ccc(F)cc2c2nnc(SCCN3CCCCC3)nc21`: 0.627%; `Cc1ccc(C(=O)c2oc3ccc(Cl)cc3c2N)cc1`: -7.4%.
As for `CNC(=O)/C(=C\c1ccc2c(c1)OCO2)NC(=O)c1ccccc1OC`, the figure is -0.941%; as for `O=C(Nc1c(C(=O)N2CCCCCC2)cnn1-c1ccccc1)c1ccccc1`, 1.78%.
As for `O=C(CSc1ccc(Br)cc1)Nc1cc(F)ccc1F`, the figure is 2.51%; as for `Cc1ccc(NC(=O)c2cc3c(=O)oc4ccccc4c3s2)nc1`, 2.73%; as for `CCOC(=O)Nc1cc(C(=O)OCC)c(C)nc1C`, -7.09%.
With `CCN(CC)C(=O)C1CCCN(c2ncnc3c2cnn3-c2cccc(C)c2)C1` (stereo not shown), the “% Inhibition @ 10 uM” value was -1.44%.
In the case of `CCOc1ccc(NC(=O)c2cccnc2)cc1`, the “% Inhibition @ 10 uM” value is recorded as -4.08%.
For `CCOC(=O)C1=C(C)OC(N)=C(C#N)C1c1ccc(Cl)cc1Cl` (stereo not shown), the “% Inhibition @ 10 uM” value was 3.1%.
In the case of `COc1cc(SC)ccc1C(=O)NC1CCCC1`, the “% Inhibition @ 10 uM” value turned out to be 0.121%.
As to `CC(C)(CO)NC(=O)C(Cc1ccccc1)N1C(=O)c2ccccc2C1=O` (stereo not shown), the “% Inhibition @ 10 uM” value was -3.5%.
With `Cc1c(C(=O)NCCCOC(C)C)sc2nc3n(c(=O)c12)CCCCC3`, the “% Inhibition @ 10 uM” value is listed as 0.372%.
As for `COc1cc(CN2CCN(c3cccc(C(F)(F)F)c3)CC2)c([N+](=O)[O-])cc1OC`, the figure is -6.47%.
With `CCOC(=O)c1c(C)oc2c1c(/C=N/c1cccc(C)n1)c(O)c1ccccc12`, the “% Inhibition @ 10 uM” value is reported as -7.02%.
Take `CC1(C)Cn2c(nc(=O)c3c2NC(=O)C3(NC(=O)c2ccccc2)C(F)(F)F)S1` (stereo not shown): the “% Inhibition @ 10 uM” value was found to be 8.81%.
Next, `COc1cc(OC)cc(C(=O)Nc2nc(-c3nnn(-c4ccc(C)c(C)c4)c3C)ns2)c1`: -1.92%; `Cc1ccc(OCC(=O)Nc2ccccc2NC(=O)COc2ccc(C)cc2)cc1`: -0.992%.
Next, `COc1cc(/C=C(\C#N)c2nc3ccccc3[nH]2)cc(Br)c1OC`: -4.33%; `COc1cc(CN2CCN(Cc3cccc(Cl)c3)CC2)cc(OC)c1OC`: 0.643%; `O=C(O)c1cc(Nc2ccccc2)c(C(=O)O)cc1Nc1ccccc1`: -0.129%.
Regarding `CC(C)CN1C(=O)c2ccccc2C(C(=O)NCCCN(C)Cc2ccccc2)C1c1cccs1` (stereo not shown), the “% Inhibition @ 10 uM” value is on record as 2.78%.
`CCC(CC)C(=O)Nc1ccc(C(=O)c2ccccc2)cc1`: the “% Inhibition @ 10 uM” value was found to be 0.843%.
For `CCc1ccc(-n2c(SC(CC)C(=O)N3CCOCC3)nc3nnc(C)c-3c2N)cc1` (stereo not shown), the “% Inhibition @ 10 uM” value is 2.8%.
As for `Cc1ccccc1NC(=O)Cn1nc(C(F)(F)F)cc1C1CC1`, the figure is 1.57%.
Consider `CC(C)CC(C(=O)NCC#N)c1cccc(-c2cc(F)ccc2O[C@H]2CCNC2)c1` (stereo partly shown), for which the “% Inhibition @ 10 uM” value was -6.56%.
With `CCN1C(=O)S/C(=C\c2cc3c(cc2Br)OCO3)C1=O`, the “% Inhibition @ 10 uM” value was found to be 3.17%.
Regarding `CCC1=C(c2ccc(C)cc2)S(=O)(=O)N=C1N1CCC(C(=O)NC2CCCCCC2)CC1`, the “% Inhibition @ 10 uM” value was -3.53%.
For the compound `CCn1c2ccc(OC)cc2c2nc3ccccc3nc21`, the “% Inhibition @ 10 uM” value is listed as -3.13%.
As for `Brc1ccc(CSc2nc3ccccc3o2)cc1`, the figure is -7.8%; as for `COC(=O)c1ccccc1S(=O)(=O)NC(=O)Nc1nc(C)nc(OC)n1`, -0.999%.
As for `O=C(Cn1ncc2ccc(Cl)cc21)NC1CCCc2ccccc21` (stereo not shown), the figure is 0.596%.
Next, `CCOC(=O)N1CCN(C(=O)CSc2nnc(Cc3cccn3C)n2-c2ccc(OC)cc2)CC1`: -5.76%; `COC(=O)C1=C(C)OC(n2cccc2)=C(C#N)C1c1cc(OC)c(O)c(OC)c1` (stereo not shown): 6.73%.
For `Cc1nnc(NC(=O)NCCc2ccccc2)s1`, the “% Inhibition @ 10 uM” value was -0.0678%.
Next, `COc1ccc(S(=O)(=O)NCCSc2ccccn2)cc1`: 2.32%; `O=C(/C=C/c1cccc([N+](=O)[O-])c1)N1CCCCCC1`: 1.35%; `O=C1OC(c2ccc(Br)o2)=N/C1=C/c1cc(Br)cs1`: -0.972%.
